Reference: PMC4336329 (PLoS ONE, 2015)
The campaign covered roughly 310,000 compounds. About 2,200 (0.71%) showed an effect of 50% or more. Effects have a minus sign here. The list shows a part of the results.

What follows are molecules tested against human ether-à-go-go-related gene (hERG) potassium channel (human, UniProt Q12809) (assay: primary screen, population patch clamp on CHO cells stably expressing hERG).
human ether-à-go-go-related gene (hERG) potassium channel, sequence (Q12809 whole entry, looked up): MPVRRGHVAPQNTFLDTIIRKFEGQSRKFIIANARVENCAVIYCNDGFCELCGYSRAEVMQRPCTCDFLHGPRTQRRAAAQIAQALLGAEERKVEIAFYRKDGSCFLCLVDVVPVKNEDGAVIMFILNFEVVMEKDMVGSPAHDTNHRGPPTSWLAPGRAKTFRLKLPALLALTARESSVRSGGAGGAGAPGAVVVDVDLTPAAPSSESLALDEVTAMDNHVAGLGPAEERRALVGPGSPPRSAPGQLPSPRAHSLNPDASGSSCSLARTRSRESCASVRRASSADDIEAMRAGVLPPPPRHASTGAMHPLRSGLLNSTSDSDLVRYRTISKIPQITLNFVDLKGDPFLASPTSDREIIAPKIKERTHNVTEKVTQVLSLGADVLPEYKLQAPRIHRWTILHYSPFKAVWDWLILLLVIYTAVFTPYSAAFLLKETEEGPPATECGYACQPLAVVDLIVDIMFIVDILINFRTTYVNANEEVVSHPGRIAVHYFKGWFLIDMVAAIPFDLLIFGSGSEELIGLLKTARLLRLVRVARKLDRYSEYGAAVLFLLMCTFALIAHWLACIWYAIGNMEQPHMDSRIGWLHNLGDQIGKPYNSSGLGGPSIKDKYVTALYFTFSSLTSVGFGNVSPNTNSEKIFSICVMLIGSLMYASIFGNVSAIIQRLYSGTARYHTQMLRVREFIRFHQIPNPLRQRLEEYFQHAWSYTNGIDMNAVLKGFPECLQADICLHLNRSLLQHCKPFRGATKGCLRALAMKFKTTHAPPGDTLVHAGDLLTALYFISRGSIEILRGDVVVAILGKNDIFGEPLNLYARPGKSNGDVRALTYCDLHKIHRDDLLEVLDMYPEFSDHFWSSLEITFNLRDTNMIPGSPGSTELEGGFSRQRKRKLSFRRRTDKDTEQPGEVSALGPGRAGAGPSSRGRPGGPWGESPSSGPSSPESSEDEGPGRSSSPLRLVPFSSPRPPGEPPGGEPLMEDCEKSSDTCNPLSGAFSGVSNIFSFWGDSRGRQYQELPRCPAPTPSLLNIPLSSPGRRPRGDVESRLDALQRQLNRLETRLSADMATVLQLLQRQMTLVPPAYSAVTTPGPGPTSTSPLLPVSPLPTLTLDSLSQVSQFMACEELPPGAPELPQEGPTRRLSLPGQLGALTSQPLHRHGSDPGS

SMILES | hERG current change (%, negative = inhibition) at 1uM [%]
CC1=C(C(=O)OCc2ccccc2)C(c2ccccc2)NC(=O)N1CCCC(=O)O (centres unmarked) | -11.4
CC(C)CN(C(=O)CCNC(=O)c1ccccc1Cl)C1CCS(=O)(=O)C1 (centres unmarked) | 11.6
Cc1ccc(C(=O)N2CCN(c3ncccn3)CC2)cc1 | 10.9
OCCN1CCOCCOc2ccccc2OCCOCC1 | 16.3
COC(=O)C1CCN(C(=O)c2ccc3oc(Cc4ccc(Cl)cc4)nc3c2)CC1 | 9.78
CC(=O)Nc1c(C)nn(-c2ccc(C)c(C)c2)c1C | 10.3
COc1ccc(NC(=O)c2cccnc2SC)cc1S(=O)(=O)N1CCCCC1 | 9.44
COc1ccccc1CNC(=O)CSc1nc2ccccc2c(=O)n1CCCN1CCOCC1 | -6.17
O=C(Cc1ccccc1)Oc1cccc(-n2cnnn2)c1 | 15.5
CC(=O)n1nc2nc(C)cc(C)c2c1N | 12.7
CC12CCC(C(=O)NCc3ccccn3)(OC1=O)C2(C)C (centres unmarked) | 13.1
O=S(=O)(Nc1cccnc1)c1ccccc1 | 13.3
CCOC(=O)/C(N=Nc1c(Br)cc(Br)cc1Br)=C(\C)O | 4.37
CCn1c(Cc2ccccc2)nnc1SCC(=O)Nc1nc(C)c(C)s1 | 11.1
Cc1c(C(=O)C(=O)N2CCOCC2)c2ccccc2n1Cc1ccccc1 | 12.9
CCN1CCN(c2nc(Nc3ccc(NC(C)=O)cc3)nc(Nc3ccc(NC(C)=O)cc3)n2)CC1 | 7.22
O=C(Nc1ccc(N2CCN(C(=O)c3cccs3)CC2)cc1)c1ccccc1F | 9.75
CN(C)S(=O)(=O)c1ccc(-c2csc(N/N=C/c3ccco3)n2)cc1 | 12.9
CC(=O)c1ccc(OCCCC(=O)OCC(=O)Nc2ccc3[nH]c(=O)[nH]c3c2)cc1 | 10.8

SMILES | hERG current change (%, negative = inhibition) at 1uM [%]
O=C1c2ccsc2SCCN1Cc1c(Cl)cccc1Cl | -1.73
O=C(COc1ccc(Cl)cc1)N1CCN(Cc2ccccc2)CC1 | 3.32
O=C(NCCc1ccccc1)C1CC(=O)N(C2CCCCCC2)C1 (centres unmarked) | 15.6
N#C/C(=C/c1ccc(Sc2nc3ccccc3[nH]2)o1)c1cccc(Br)c1 | 20.9
CC(C)(C)C(=O)NC(NC(=S)Nc1sc2c(c1C#N)CCCC2)C(Cl)(Cl)Cl (centres unmarked) | 17.2
CC(C)N(C(=O)CSc1nc(COc2ccccc2)nc2ccccc12)C(C)C | 10.5
O=C(Cn1cc(C(=O)c2ccco2)c2ccccc21)Nc1ccccc1 | 14.9
Cc1nnc2ccc(-c3cccc(NS(=O)(=O)c4cc(F)ccc4F)c3)nn12 | 5.12
Cc1nnc(SCC(=O)NCc2ccc(F)cc2)[nH]c1=O | 15.5
O=C(NCC1CCCO1)c1ccccc1NS(=O)(=O)c1cccs1 (centres unmarked) | 12.6
CC(OC(=O)C1CC(=O)N(Cc2ccco2)C1)C(=O)Nc1ccc(F)cc1Cl (centres unmarked) | 25.5
O=C(NCc1ccc(F)cc1)N1CCN(C(=O)c2ccccc2)CC1 | 9.81
COc1nc(OC)nc(N2CCC(NC(=O)C(Cc3cccc(OC)c3OC)NC(C)=O)CC2)n1 (centres unmarked) | 7.54
S=C(NCc1ccc(Cl)cc1)NC12CC3CC(CC(C3)C1)C2 | 10.7
CC(C)CNC(=S)NNC(=O)c1csc2c1CCC(C)C2 (centres unmarked) | 0.758
O=C(c1cccc(Br)c1)N1CCN(c2cnn(-c3ccccc3)c(=O)c2Cl)CC1 | -24.3
CNc1oc(/C=C/c2cccc(OC)c2)nc1C#N | 13.1
Cc1ccc(NC(=O)CN(C)S(=O)(=O)c2cccc3cccnc23)cc1C | 0.925
O=C(O)c1ccnc(SCC(=O)c2ccccc2)c1 | 8.5

SMILES | hERG current change (%, negative = inhibition) at 1uM [%]
Cc1ccc(-n2c(C)cc(C(=O)COC(=O)c3ccc[nH]c3=O)c2C)cc1 | 2.78
Cc1nn(-c2ccccc2)c2nc(Cl)c(C(=O)O)cc12 | -3.23
C=CCc1cccc([C@@H]2[C@@H](C)CC[C@H]3C(=O)N4[C@@H](c5cc(OC)c(OC)c(OC)c5)c5[nH]c6ccccc6c5C[C@H]4C(=O)N23)c1 | 16.3
O=C(O)c1c(Cl)c(Cl)c(Cl)c(Cl)c1C(=O)N1CCCC1 | 15.1
Cc1cc(C)nc(/N=C(/NC(=O)Nc2ccc(Cl)c(Cl)c2)Nc2cccc(Cl)c2)n1 | 12.8
COc1ccc(CCNC(=O)c2cccc(S(=O)(=O)N3CCCCCC3)c2)cc1 | -21.3
O=C(Cn1ncc2ccsc2c1=O)N1CCC2(CC1)OCCO2 | -6.32
COc1ccc(OC)c(/C=N/NC(=O)C(=O)N2CCCCCC2)c1 | 14.7
O=C(Nc1ccccn1)C1COc2ccccc2O1 (centres unmarked) | 14.7
CC(/C=C/c1ccc(OCc2ccccc2)cc1)=N\O | -2.34
COc1cc(OC)c([C@H]2C=C(C)[C@H]3C[C@@H]2C3(C)C)c(OC)c1 | 23.6
Br.CC(C)=NNc1nc(-c2ccc(N3C(=O)CCC3=O)cc2)cs1 | 14.8
CC1CCCN(Cc2csc(N)n2)C1 (centres unmarked) | 7.5
CC1CN(C(=O)c2cccc(S(=O)(=O)N3CCN(c4ccccc4)CC3)c2)CC(C)O1 (centres unmarked) | -0.256
O=C(Nc1ccccc1Cl)OC1CCCCC1 | 14.4
COc1cccc(C(=O)NCc2ccc(N3CCN(C(=O)OC(C)(C)C)CC3)cc2)c1 | 4.32
COc1cc(SC)ccc1C(=O)N(Cc1ccccc1)c1ccccn1 | 10.2
O=C(O)c1cccc(NC(=O)c2ccc(CN3C(=O)c4ccccc4C3=O)cc2)c1 | 25.2
